# T1: Asp f2 (Aspergillus fumigatus, UniProt P79017)
# T1 construct: 1: A. fumigatus culture filtrate of a 9-day culture; endogenous in cells; host or cells: Aspergillus fumigatus culture filtrate
# T1 sequence (P79017 32-310): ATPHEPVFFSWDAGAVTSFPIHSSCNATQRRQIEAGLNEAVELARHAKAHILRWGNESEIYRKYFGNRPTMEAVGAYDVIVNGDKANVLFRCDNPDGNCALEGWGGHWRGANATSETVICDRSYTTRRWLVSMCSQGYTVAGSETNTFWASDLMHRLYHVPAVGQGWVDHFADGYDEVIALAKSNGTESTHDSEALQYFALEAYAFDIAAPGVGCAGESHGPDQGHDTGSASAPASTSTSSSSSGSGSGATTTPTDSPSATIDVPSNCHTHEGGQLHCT
# B1: 5D7A1: novel anti-Asp f2 monoclonal antibody, VH SEQ ID NO: 1, VL SEQ ID NO: 2 (antibody, V domains shown)
# VH: LPEFEVQLEESGAELARPGASVKMSCKASGYTFTTYTMHWVKQRPGQGLEWIGYINPSSGYTNYNQKFKDKATLTANKSSSIGYMQLSSLTSEDSALYYCLRRPYRSHGGWFFDVWGAGTTVTVSSAKTTPPSVYRSSK
# VL: MESQTQVFVYMLLWLSGVDGDIVMTQSQKFMSTSVGDRVSVTCKASQNVETNVAWYQQKLGQSPKALIYSASFRTSGVPDRFTGSGSGTDFTLTINNVQSEDLAEYFCQQYNTYPLTFGAGTKLELKRADAAPTVSISHHPVLES
# modifications: mAb 5D7A1 VH domain; mAb 5D7A1 VL domain
# Assays:
# recombinant SMT3-Asp f2 = molecular target: T2, recombinant SMT3-Asp f2 (Aspergillus fumigatus, UniProt P79017); assay: Western blot, binding to recombinant SMT3-Asp f2; parameters: species or system A. fumigatus
# T2 construct: 3: recombinant (r)SMT3-Asp f2; Thioredoxin (Trx) (N); His6 (internal); S-tag (internal); made in house; host or cells: Escherichia coli
# Description: (§1) Western blots were performed to compare the binding specificity of 5D7A1 and the recombinant scFvs generated in Example 8.
# Asp f2 = molecular target: T1, Asp f2; assay: Bead-based protease activity assay with different capture antibodies, A. fumigatus culture filtrate; settings: culture filtrate from A. fumigatus
# native Asp f2 = molecular target: T3, native Asp f2 (Aspergillus fumigatus, UniProt P79017); assay: Western blot, binding to native Asp f2; parameters: species or system A. fumigatus
# T3 construct: beads were incubated with native or recombinant Asp f2; endogenous in cells; host or cells: Aspergillus fumigatus (preparation of the native protein not described for this assay)
# Description: as §1
molecule,measurement,setting,value
B1,binding to recombinant SMT3-Asp f2 in Western blot,recombinant SMT3-Asp f2,weakly bound
same,Asp f2 proteolytic cleavage of 5-Fam-elastin substrate after capture on antibody beads,Asp f2; 5-Fam-elastin substrate,most robust proteolytic activity
same,Asp f2 proteolytic cleavage of FITC-collagen substrate after capture on antibody beads,Asp f2; FITC-collagen substrate,most robust proteolytic activity
same,binding to native Asp f2 in Western blot,"native Asp f2; A. fumigatus culture filtrates, different glycosylation states",bound native Asp f2
same,"Western blot signal with unglycosylated Asp f2, 5D7A1 compared with scFv","native Asp f2; unglycosylated Asp f2, band at ~40 kDa",stronger signal
